Test results taken from PubChem BioAssay (NCI).
Where “and” joins values, the source holds several entries; their conditions need not be identical. Equal values may be shown once.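 96-well plates; 48 h exposure; 5 concentrations. Endpoints by linear interpolation between flanking doses. Not reached: highest tested concentration assigned. GI50: concentration for 50% inhibition of growth. The concentration for full growth arrest is given as TGI.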 Numbered stars: 1 amine (or outer) side, 2 acyl side, 3 side chain; on linkers, the order of the positions; unused ones are H or OH. Bridge positions count the residues as written; N and C are the ends. Square brackets hold non-standard residues; d marks the D form. Peptide text beside a SMILES is read from it. Adda = CO[C@@H](Cc1ccccc1)[C@@H](C)/C=C(C)/C=C/[C@H](N[*:1])[C@H](C)C(=O)[*:2]; dAsp(3S-Me) = C[C@H](C(=O)[*:3])[C@@H](N[*:1])C(=O)[*:2]; d(γGlu) = O=C(O)[C@@H](CCC(=O)[*:2])N[*:1]; NMeDha = C=C(NC)C(=O)O

System: NCI-H322M lung
Assay: inhibition of tumour cell growth, NCI panel, 48 h

| Structure (SMILES) | GI50 [µM] | TGI |
| --- | --- | --- |
| O=C(Nc1ccc(CN2CCOCC2)cc1)c1ccc(-c2cc(Cl)ccc2Cl)o1 | 19.2 | 60.7 µM |
| O=C(NN1C(=O)CS(=O)(=O)C1c1cccc(F)c1)c1ccncc1 (stereo not drawn) |  | > 100 µM |
| Cc1ncc([N+](=O)[O-])n1CCNC(=O)CCCn1ccnc1[N+](=O)[O-] |  | > 100 µM |
| Clc1ccccc1/C=C\C1(c2ccccc2)OCCO1 |  | > 100 µM |
| COc1cc(S(=O)(=O)Nc2nc(-c3ccc(N=Cc4cccs4)cc3)cs2)ccc1Cl |  | > 100 µM |
| Cn1c(=O)[nH]c2nccnc2c1=O |  | > 10 µM |
| Nc1cc(-c2ccccc2)nn1-c1nsc2ccccc12 |  | > 100 µM |
| CCN(CC)C(=S)N/N=C(\C)c1cccc(C)n1 |  | 13.5 µM |
| NCCN.NCCN.[Cl-].[O]=[Os+2]=[O] | > 100 | > 100 µM |
| Oc1ccc2ccccc2c1CN(Cc1c(O)ccc2ccccc12)C1CCCCC1 |  | 85.4 µM |
| O=C(NC(=S)Nc1ccccc1)c1ccc([N+](=O)[O-])cc1 |  | > 100 µM |
| O=c1[nH]c(=O)n(C2CC(O)C(CO)O2)c2nc3cc4ccccc4cc3nc12 (stereo not drawn) |  | > 100 µM |
| CC12CCC(C(Br)(Br)C1=O)C2(C)C (stereo not drawn) |  | > 42.2 µM |
| O=c1c2ccc3cccc4c(=O)c5ccc6cccc1c6c5-c2c34 | > 50 | > 50 µM |
| C=C1C(=O)N[C@H](C)C(=O)N[C@@H](CC(C)C)C(=O)N[C@@H](C(=O)O)[C@H](C)C(=O)N[C@@H](CCCN=C(N)N)C(=O)N[C@@H](/C=C/C(C)=C/[C@H](C)[C@H](Cc2ccccc2)OC)[C@H](C)C(=O)N[C@@H](C(=O)O)CCC(=O)N1C (R[Adda][d(γGlu)][NMeDha][dA]L[dAsp(3S-Me)]-OH; lactam N-7) | > 5 | > 5 µM |
| O=NN(CCCl)C(=O)NCCCl | > 449 | 250 µM and 370 µM and > 500 µM |
| CC(=O)O[C@H]1CCC2(C)C(=CCC3C2CCC2(C)/C(=N/OC(=O)c4ccc(N(CCCl)CCCl)cc4)CCC32)C1 (stereo partly drawn) | > 100 | > 100 µM |
| O=C1c2ccccc2-c2nnc(-c3ccc(Br)cc3)cc21 | > 100 | > 100 µM |
| O=C1CCCCCCCCCCC(=O)N2CCOCCOCCN1Cc1cccc(n1)C2 |  | > 100 µM |
| Cc1cc2[nH]c(Cl)c(/C=C3\C(=O)Nc4ccccc43)c2cc1O |  | 17.9 µM |
| CCOC(=O)C1=C(NC(C)(C)C)OC/C1=N\NC(=O)Cc1ccccc1 |  | > 100 µM |
| Cc1cc(NS(=O)(=O)c2ccc(NC(=O)c3cccn4c(=O)c5ccccc5nc34)cc2)no1 |  | > 100 µM |
| CCN(CC)CCOc1ccc(N2C(=O)c3cccc4cc([N+](=O)[O-])cc(c34)C2=O)cc1 |  | 33.5 µM |

| Structure (SMILES) | GI50 [µM] | TGI |
| --- | --- | --- |
| O=C1OCC=C1COC1OC(CO)C(O)C(O)C1O (stereo not drawn) |  | > 100 µM |
| COc1ccc(SCc2cc(OC)c(OC)c(OC)c2)cc1OC |  | > 100 µM |
| C/C(=N\O)c1ccc(Nc2nc3ccccc3c3occc23)cc1 |  | 67.5 µM |
| O=C1C=CC(=O)N1C1CCCCCCCCCCC1 | 63.4 | > 100 µM |
| C=C1CCC2C(C)(CO)C(O)CCC2(C)C1CC(O)/C(=C/CO)C(=O)O (stereo not drawn) |  | > 100 µM |
| COc1cc(NCCCCCN=C(N)N)c2ncccc2c1 | 10.6 | > 100 µM |
| Cc1ccc(S(=O)(=O)N/N=C2\CC3C4C=CC3C2C4)cc1 (stereo not drawn) |  | > 100 µM |
| COc1ccc(C(N)=O)c(OC)c1OCc1ccccc1 |  | > 100 µM |
| O=[N+]([O-])c1ccc(C2=NN(c3ccccc3)C[N+](c3ccc(Br)cc3)=N2)cc1 |  | > 100 µM |
| CCCS(=O)(=O)Nc1ccc(F)c(C(=O)c2c[nH]c3ncc(Cl)cc23)c1F | 6.8 | > 100 µM |
| CN(C)CCCNC(=O)N/N=C/c1ccc([N+](=O)[O-])cc1 |  | > 100 µM |
| CCN1CCN(c2cc(C)nc(N(CCNc3ccnc4cc(Cl)ccc34)Cc3ccc4c(c3)OCO4)n2)CC1 | 2.95 | 11.1 µM |
| N#CC(/C(CCCC(=O)Nc1cccc([N+](=O)[O-])c1)=N/NC(=O)c1cc2ccccc2cc1O)c1ccccc1 (stereo not drawn) |  | > 100 µM |
| Nc1nc(/C=C\c2ccc([N+](=O)[O-])cc2)nc(N2CCN(c3ccccc3)CC2)n1 | 20.8 | 60.6 µM |
| O=C1C2c3[nH]c4ccccc4c3C3CCCC3C2C(=O)N1c1ccccc1 (stereo not drawn) |  | > 100 µM |
| C#C[C@]1(O)CC[C@H]2[C@@H]3CCC4=CC(=NCCOC(=O)c5cccc6cc7ccccc7nc56)CC[C@@H]4[C@H]3CC[C@@]21C |  | > 100 µM |
| CCOC(=O)c1sc2nc(SC)nc3c2c1NCN3C1CC1 |  | > 100 µM |
| Cc1nn(C2OC(CO)C(O)C(F)C2O)c(=O)[nH]c1=O (stereo not drawn) |  | > 100 µM |
| O=S(=O)(O)SC/C=C\CSS(=O)(=O)O |  | > 100 µM |
| CC1=NN(c2nc(N)nc(C(C#N)C(=O)c3cc4c(cc3Cl)Sc3nccn3S4(=O)=O)n2)C(C)(C)C1 (stereo not drawn) |  | > 100 µM |
| C1CSCCCSCCCSCCCSCCCSC1 |  | > 100 µM |
| COc1ccc(/C=N/c2nc3cc4sc(/N=C/c5ccc(OC)cc5)nc4cc3s2)cc1 |  | > 100 µM |
| CC12OC1(C)C1C(=O)OCC1C2=O (stereo not drawn) |  | > 100 µM |

| Structure (SMILES) | GI50 [µM] | TGI |
| --- | --- | --- |
| COc1ccc2[nH]c(-c3ccccc3)c(/C=C(\C#N)S(=O)(=O)c3ccccc3)c2c1 | 30.1 | > 100 µM |
| O=C1C2C=CC(n3[nH]c(=O)n(Cc4ccccc4)c3=O)CC2C(=O)N1c1cccc(Cl)c1 (stereo not drawn) |  | > 100 µM |
| O=C(Oc1ccc(S(=O)(=O)F)cc1F)c1ccccc1Cl |  | > 100 µM |
| CSC1=NN(c2ccccc2)C(=O)C1=C(SC)SC |  | 79 µM |
| C=C1OC(=O)[C@]2([C@@H](/C=C/C)C=CC(=O)[C@H]2O)[C@@H]1O |  | > 100 µM |
| CCOC(=O)Nn1c(C)nnc1CC#N |  | > 100 µM |
| CCN(CC)Cc1cc(Nc2c3ccccc3nc3c4ccccc4n(C)c23)cc(CN(CC)CC)c1O |  | 15.3 µM |
| Clc1ccc(CSc2ncnc3c2ncn3C2CCCCO2)cc1 (stereo not drawn) |  | > 100 µM |
| CC1CC(C)CC(NC2=NCCO2)C1 (stereo not drawn) |  | > 100 µM |
| Cc1ccc([N+](=O)[O-])cc1S(=O)(=O)Nc1ccc(C(=O)/C=C/c2cccs2)cc1 |  | 53.1 µM |
| C[N+](C)(CCNC(=O)c1cccc2cc3ccccc3nc12)Cc1ccc([N+](=O)[O-])cc1 |  | > 100 µM |
| CC1(C)OC2C(CO)OC(n3cnc(N)nc3=O)C2O1 (stereo not drawn) |  | > 100 µM |
| COP(=O)(OC)/C(=C/c1c[nH]c2ccccc12)C(=O)O |  | > 100 µM |
| O=C(NCc1ccc(Cl)cc1Cl)c1ccc(NC2=C(Cl)C(=O)N(Cc3ccccc3)C2=O)cc1 | 77 | > 100 µM |
| O=C1NC2C(=O)N(Cc3ccccc3)C(=O)C2N1 (stereo not drawn) |  | > 100 µM |
| COc1ccc2[nH]c(S(=O)(=O)N3CC(CCl)c4ccc(N)cc43)cc2c1 (stereo not drawn) |  | 44.8 µM |
| COC(=O)[C@H](NC(=O)OC(C)(C)C)[C@H]1COC(C)(C)O1 |  | > 100 µM |
| Cc1cc(O)c(C(=O)O)c2c1C(=O)c1c(O)c(OCC(O)C(O)C(O)C(O)CO)c(O)c(O)c1C2=O (stereo not drawn) (tested in a mixture with another compound) |  | > 100 µM |
| O=C(COc1ccc(/C=C/C(=O)c2ccc(Cl)cc2)cc1)Nc1c(Cl)cccc1Cl |  | > 100 µM |
| [Cl-].[Cl-].[Cl-].[O-]c1cccc2cccnc12.[O-]c1cccc2cccnc12.[O]=[Mo] | 4.35 | 30.3 µM |
| O=[N+]([O-])c1ccc2c(c1)Sc1ccccc1N2CCCCCl |  | > 100 µM |
| O=C(Nc1cccc(-n2cc(-c3ccncc3)c(-c3ccc(Cl)c(O)c3)n2)c1)Nc1ccc(Cl)c(C(F)(F)F)c1 | 1.11 | 4.79 µM |
| COc1ccccc1/C=C1\Sc2scc(-c3ccc(O)c(O)c3)[n+]2C1=O |  | > 100 µM |

| Structure (SMILES) | GI50 [µM] | TGI |
| --- | --- | --- |
| COc1ccc(C2C(Cl)C(=O)N2NC(=O)c2ccc(N)cc2)cc1 (stereo not drawn) |  | > 100 µM |
| CN1C2CCC1CC(CC(=O)NC(c1ccc(F)cc1)c1ccc(F)cc1)C2 (stereo not drawn) |  | > 100 µM |
| O=C(N/N=C/c1ccccc1O)c1ccccc1O | 2.85 | > 100 µM |
| N#C/C(=C\c1ccccc1)c1nc(-c2cc3ccccc3oc2=O)cs1 |  | > 100 µM |
| O=C(O)CNC(=O)C(CS)Cc1ccccc1 (stereo not drawn) | > 25 | > 25 µM |
| COc1ccc(/C=C2\C(=O)N(C(=O)c3ccc(NC(C)=O)cc3)N=C2C)cc1 |  | > 100 µM |
| CC(C)=CCc1c(O)c(CC=C(C)C)c2oc(-c3ccc(O)cc3O)c(CC=C(C)C)c(=O)c2c1O |  | 25.4 µM |
| Cc1cc(S(=O)(=O)n2ccnc2Oc2cccc(Cl)c2)c(SSc2cc(Cl)c(C)cc2S(=O)(=O)n2ccnc2Oc2cccc(Cl)c2)cc1Cl |  | > 100 µM |
| C/C1=C\[C@H](C)C[C@H](C)OC(=O)C[C@H](c2ccc(O)cc2)NC(=O)[C@H](Cc2ccc(O)c(I)c2)N(C)C(=O)[C@H](C)NC(=O)[C@@H](C)C1 |  | > 25 µM |
| O=C(O)c1cc(C(=O)O)nc(C(=O)O)c1 |  | > 100 µM |
| Cn1ncc2[nH]cnc2c1=S |  | > 100 µM |
| CN1CCN([C@H]2C[C@H]3[C@@H]4CC=C5C[C@@H](N6CCCC6)CC[C@]5(C)[C@H]4CC[C@]3(C)[C@H]2O)CC1 |  | > 100 µM |
| N#CC1CNC(N)NC1N (stereo not drawn) |  | > 100 µM |
| O=C1CC(=O)NC(=NN2C(=O)CSC2c2ccccc2)N1 (stereo not drawn) |  | > 100 µM |
| C/C(=N\NC1=NCCN1)c1cn(C2=NCCN2)nc1C |  | > 100 µM |
| COc1cc2c(cc1O)NC(=S)[C@@H]1CCCN1C2=O |  | > 100 µM |
| Cc1ccc2nc(-c3ccc(N)c(Br)c3)sc2c1 |  | > 100 µM |
| Nc1nc(-c2ccccc2)c(Cl)c(-c2cc(Cl)ccc2O)n1 |  | > 100 µM |
| CC(C)(CN1CCCCC1)C(/C=C/c1ccc(Cl)c(Cl)c1)=N\NC(=O)N/N=C(/C=C/c1ccc(Cl)c(Cl)c1)C(C)(C)CN1CCCCC1 |  | 3.23 µM |
| O=c1c2cc(F)ccc2sc2c(N3CCNCC3)nc3ccccc3c12 | 1.58 | 2.96 µM |
